The list shows a part of the results, in another mix than the full data. Effects have a minus sign here.

The target in this experiment is human ether-à-go-go-related gene (hERG) potassium channel (human, UniProt Q12809). In words: primary screen, population patch clamp on CHO cells stably expressing hERG; higher = less effect of the substance. As to the method:
Briefly, Chinese hamster ovary (CHO) cells stably expressing the hERG channel were dislodged from tissue culture flasks and dispensed into PPC plates. […] During the recording, background leak currents were estimated by a 100 ms step to -80 mV from an initial holding potential of -70 mV and subtracted from the subsequent current measurement. The campaign was conducted in two phases using slight differences in recording protocol. In the first phase, the initial voltage pulse used a 100 ms step to -30 mV from a holding potential of -70 mV, a 2 s conditioning step to +25 mV, and a 2 s test step to -30 mV. During the second phase of the screen, the potential during the conditioning step was raised to +45 mV. In both phases of the campaign, a secondary voltage pulse was applied using the same parameters as the second phase initial pulse. The initial and secondary pulses were applied in the absence of compound, and upon application of 1 μM and 10 μM test concentrations. Small molecule effects on hERG current density were quantified by […].
Regarding `CCN(CC)CCOC(=O)C1(C2CCCCC2)CCCCC1.Cl`, the “hERG current change (%, negative = inhibition) at 1uM” value is listed as 4.85%.

With `Cl.Fc1ccc(C(c2ccc(F)cc2)N2CCN(C/C=C/c3ccccc3)CC2)cc1`, the “hERG current change (%, negative = inhibition) at 1uM” value is 3.53%.

In the case of `CCN(CC)CCOc1ccc(/C(=C(\Cl)c2ccccc2)c2ccccc2)cc1.O=C(O)CC(O)(CC(=O)O)C(=O)O`, the “hERG current change (%, negative = inhibition) at 1uM” value is 11.6%.

As for `CN(C)CCN(Cc1cccs1)c1ccccn1.Cl`, the “hERG current change (%, negative = inhibition) at 1uM” value is reported as -57%.

For the molecule `Cl.O.Oc1ccc2c3c1O[C@H]1[C@@H](O)CC[C@@]4(O)[C@@H](C2)N(CC2CCC2)CC[C@]314`, the “hERG current change (%, negative = inhibition) at 1uM” value is -6.55%.

For `Clc1ccc(COC(Cn2ccnc2)c2ccc(Cl)cc2Cl)c(Cl)c1.O=[N+]([O-])O` (centres unmarked), the “hERG current change (%, negative = inhibition) at 1uM” value is on record as -4.53%.

Consider `Cl.Oc1ccc2c3c1O[C@H]1[C@@H](O)CC[C@@]4(O)[C@@H](C2)N(CC2CCC2)CC[C@]314`, for which the “hERG current change (%, negative = inhibition) at 1uM” value is listed as 6.6%.

Take `C(=C\c1ccccc1)/CN1CCN(C(c2ccccc2)c2ccccc2)CC1`: the “hERG current change (%, negative = inhibition) at 1uM” value is given as 6.47%.

As to `CCN(CC)CCOc1ccc(/C(=C(/Cl)c2ccccc2)c2ccccc2)cc1.O=C(O)CC(O)(CC(=O)O)C(=O)O`, the “hERG current change (%, negative = inhibition) at 1uM” value is 17.3%.

On to `CCN[C@H]1C[C@H](C)S(=O)(=O)c2sc(S(N)(=O)=O)cc21.Cl`, for which the “hERG current change (%, negative = inhibition) at 1uM” value was 14.9%.

For the molecule `CCCN1CCC[C@@H]2Cc3[nH]ncc3C[C@H]21.Cl`, the “hERG current change (%, negative = inhibition) at 1uM” value is on record as 11.4%.

For the molecule `CN1CCC(=C2c3ccccc3C=Cc3ccccc32)CC1.Cl`, the “hERG current change (%, negative = inhibition) at 1uM” value is recorded as 14.5%.

For `CN1C2CCC1CC(OC(c1ccccc1)c1ccccc1)C2.CS(=O)(=O)O` (centres unmarked), the “hERG current change (%, negative = inhibition) at 1uM” value is on record as -37.7%.

For `CCN(CC)CC#CCOC(=O)C(O)(c1ccccc1)C1CCCCC1.Cl` (centres unmarked), the “hERG current change (%, negative = inhibition) at 1uM” value stood at 2.55%.

`Br.CN1[C@@H]2CC[C@H]1CC(OC(=O)C(O)c1ccccc1)C2` (some centres unmarked): the “hERG current change (%, negative = inhibition) at 1uM” value came to 17.2%.

For `CN[C@H]1CCc2cc(OC)c(OC)c(OC)c2-c2ccc(OC)c(=O)cc21`, the “hERG current change (%, negative = inhibition) at 1uM” value was found to be 8.66%.

For `Cc1ccccc1C(OCCN(C)C)c1ccccc1.O=C(O)CC(O)(CC(=O)O)C(=O)O` (centres unmarked), the “hERG current change (%, negative = inhibition) at 1uM” value was 0.703%.

`Clc1ccc(CO/N=C(\Cn2ccnc2)c2ccc(Cl)cc2Cl)c(Cl)c1.O=[N+]([O-])O`: the “hERG current change (%, negative = inhibition) at 1uM” value is given as 15.3%.

Take `CN(C)C(=O)C(CCN1CCC(O)(c2ccc(Cl)cc2)CC1)(c1ccccc1)c1ccccc1.Cl`: the “hERG current change (%, negative = inhibition) at 1uM” value was -81.7%.

For the molecule `CCCCCCCCc1ccc(O)cc1`, the “hERG current change (%, negative = inhibition) at 1uM” value was 6.37%.

With `Cl.Oc1ccc2c3c1OC1C(O)CC[C@@]4(O)[C@@H](C2)N(CC2CCC2)CC[C@]314` (some centres unmarked), the “hERG current change (%, negative = inhibition) at 1uM” value was 6.66%.

With `Clc1ccc(CSC(Cn2ccnc2)c2ccc(Cl)cc2Cl)cc1.O=[N+]([O-])O` (centres unmarked), the “hERG current change (%, negative = inhibition) at 1uM” value was 14.8%.

`CN(C)CC/C=C1\c2ccccc2COc2ccccc21.Cl`: the “hERG current change (%, negative = inhibition) at 1uM” value is recorded as 2.57%.

Take `CCCCc1oc2ccccc2c1C(=O)c1cc(I)c(OCCN(CC)CC)c(I)c1.Cl`: the “hERG current change (%, negative = inhibition) at 1uM” value was found to be 14.3%.

As to `CC(C)(O)c1ccccc1CC[C@@H](SCC1(CC(=O)[O-])CC1)c1cccc(/C=C/c2ccc3ccc(Cl)cc3n2)c1.[Na+]`, the “hERG current change (%, negative = inhibition) at 1uM” value is given as 9.16%.

Take `C[C@@H]1C[C@H]2[C@@H]3CCC4=CC(=O)C=C[C@]4(C)[C@@]3(F)[C@@H](O)C[C@]2(C)[C@@]1(O)C(=O)COP(=O)([O-])[O-].[Na+]`: the “hERG current change (%, negative = inhibition) at 1uM” value turned out to be 10.7%.
